The whole screen tested about 330,000 compounds, of which about 4,200 (1.3%) were called active. This list was built around the results that the source calls inconclusive (neither active nor inactive); the mix of calls is not that of the screen. Calls come from the whole dose curve; as a rule, active = well fitted activation curve with a large enough effect; inconclusive = small, poorly fitted or top-dose-only effect; inactive = no such curve, though single readings can be large or run the other way. Where the call is inconclusive, the potency comes from a doubtful curve fit.
Assay: qHTS screen for small molecules that induce genotoxicity in human embryonic kidney (HEK293T) cells expressing luciferase-tagged ELG1; note: nearly all actives have a fitted effect of over 60% in size; for activity change, positive = activation: % of control where 0% means no effect
Details: HEK293T ELG1-luciferase reporter, luminescence, 16 h; series mostly up to 46 µM; activity change, positive = activation: at the top concentration
Summary of the method: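 DMSO vehicle served as control against compound-treated ELG1-luciferase HEK293T cells; exposure lasted 16 hr at 37 °C and 5% CO2, followed by ONE-Glo luminescence detection after 30 min.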
Potency is the fitted concentration of half-maximal effect; tags give direction and shape of the fitted curve.

Row | Compound | Potency | activity change, positive = activation
1 | CCOc1ncccc1C(=O)Nc1ccc2nc(C)sc2c1 | inconclusive: 11.6 µM [activator, partial curve] | –
2 | CN(CC(=O)Nc1c(Cl)cccc1Cl)C(=O)CCC(=O)c1ccccc1 | – | inactive: 0.561%
3 | Cc1nn(-c2ccccc2)c(Cl)c1/C=N/NC(=O)c1ccn[nH]1 | active: 8.2 µM | –
4 | COc1ccc2cc3c(nc2c1)OCC3 | inconclusive: 23.1 µM [activator, partial curve, poor fit] | –
5 | O=C(Cc1ccccc1F)OCC(=O)N1CCc2ccccc21 | – | inactive: 7.83%
6 | Cc1ccccc1Nc1nc(N)nc(CSc2ccccc2)n1 | active: 9.2 µM | –
7 | CCOC(=O)c1cc(=O)n2c(nc3ccccc32)[nH]1 | – | inactive: 13.1%
8 | Nc1nc2ccc(N3CCOCC3)cc2s1 | active: 8.2 µM | –
9 | CSc1nc2ccc3nc(NC(=O)c4cccs4)sc3c2s1 | inconclusive: 6.51 µM [activator, partial curve, poor fit] | –
10 | Cc1c([N+](=O)[O-])c(C(=O)Nc2ccc3c(c2)OCCO3)nn1C | active: 11.6 µM | –
11 | COCCN1CCn2c(nc3cc(NC(=O)c4cccs4)ccc32)C1 | inconclusive: 23.1 µM [activator, single point] | –
12 | Cc1sc(NC(=O)c2ccccc2F)c(CN2CCCCC2C)c1C (stereo not given) | inconclusive: 14.6 µM [activator, partial curve, poor fit] | –
13 | N#Cc1ccccc1NC(=O)COc1ccc2c(c1)OCO2 | inconclusive: 5.62 µM [activator, single point] | –
14 | CC(=O)c1sc(NC(=O)c2ccc(F)cc2)nc1-c1ccccc1 | inconclusive: 23.1 µM [activator, partial curve, poor fit] | –
15 | COc1ccc(NC(=S)Nc2ncccc2C)cc1OC | inconclusive: 14.6 µM [activator, partial curve, poor fit] | –
16 | O=C(NC(=S)N1CCCC(C(F)(F)F)C1)c1ccc(F)cc1 (stereo not given) | – | inactive: 0.0245%
17 | O=C(Nc1nc2ccccc2[nH]1)c1ccc([N+](=O)[O-])cc1 | inconclusive: 0.58 µM [activator, full curve] | –
18 | Cc1ccc(-c2nc3ccccc3[nH]2)cn1 | inconclusive: 11.6 µM [activator, partial curve, poor fit] | –
19 | CCc1ccccc1NC(=O)Nc1ccsc1C(=O)OC | – | inactive: 2.88%
20 | Cc1ccccc1CSc1ccc(-c2ccc3c(c2)OCO3)nn1 | inconclusive: 25.9 µM [activator, partial curve, poor fit] | –
21 | CCn1c2ccccc2c2cc(/C=N/NC(=O)c3ccccc3C)ccc21 | inconclusive: 29.1 µM [activator, single point] | –
22 | O=C(N/N=C/c1ccc2cccnc2c1)c1nc2ccccc2c(=O)[nH]1 | inconclusive: 14.6 µM [activator, partial curve, poor fit] | –
23 | COc1cc(/C=N/Nc2ccc(C(=O)O)cc2)cc(OC)c1OC | active: 16.4 µM | –
24 | Cc1cccc(N=Nc2c(C)[nH]n(C(N)=S)c2=O)c1C | inconclusive: 25.9 µM [activator, partial curve, poor fit] | –
25 | Cn1c(=O)[nH]c(=O)c2c1nc(SCC(=O)Nc1ccccc1)n2Cc1ccccc1 | inconclusive: 18.4 µM [activator, partial curve, poor fit] | –

Row | Compound | Potency | activity change, positive = activation
26 | Cn1cccc1C(=O)C(=O)Nc1ccc(Cl)cc1 | inconclusive: 2.59 µM [activator, single point] | –
27 | O=c1nc(Nc2ccc(OCc3ccccc3)cc2)sc2ncccc12 | – | inactive: -3.2%
28 | Nc1ccc2nn(-c3ccc(F)cc3)nc2c1 | active: 3.26 µM | –
29 | Cc1ccc(-c2cc(C(=O)NCCCn3ccnc3)c3ccccc3n2)s1 | – | inactive: -0.443%
30 | CC1CCN(C(=O)c2cc3c(=O)n4ccccc4nc3s2)CC1 | inconclusive: 14.6 µM [activator, partial curve] | –
31 | COc1cc(-c2ccccc2)nc2ccccc12 | – | inactive: -3.24%
32 | Cc1ccc(-c2nc(C#N)c(NCC3CCCO3)o2)cc1 (stereo not given) | inconclusive: 14.6 µM [activator, single point] | –
33 | O=C(c1ccc2oc(CCc3ccccc3)nc2c1)N1CC[C@H](O)C1 | inconclusive: 9.2 µM [activator, partial curve] | –
34 | Cc1nc(C(=O)NNC(=O)c2ccc(Cl)cc2)cs1 | inconclusive: 29.1 µM [activator, partial curve, poor fit] | –
35 | COc1ccc(C(=O)NCc2ccc3[nH]c(C)cc3c2)cc1OC | – | inactive: -1.6%
36 | CC(=O)Nc1ccc(S(=O)(=O)NCCC(=O)N2CCN(c3ccccc3Cl)CC2)cc1 | – | inactive: -2.27%
37 | COc1ccc2occ(C(=O)c3ccccc3)c2c1 | inconclusive: 11.6 µM [activator, partial curve, poor fit] | –
38 | CN1CC(=O)N2C(c3cccc([N+](=O)[O-])c3)c3[nH]c4ccccc4c3C[C@H]2C1=O (stereo not given in full) | inconclusive: 20.6 µM [activator, partial curve, poor fit] | –
39 | CCOC(=O)C1CCN(C(=O)c2cc3ccccc3oc2=O)CC1 | – | inactive: 8%
40 | COc1ccc(-c2c(C)nn3c(N)c(C#N)cnc23)cc1OC | inconclusive: 11.6 µM [activator, partial curve, poor fit] | –
41 | CSc1nc2ccc(NC(=O)C3CCCO3)cc2s1 (stereo not given) | active: 10.3 µM | –
42 | CCN(CC)c1ccc(/C=C2/C(=O)c3ccc(C(=O)O)cc3C2=O)cc1 | inconclusive: 20.6 µM [activator, single point] | –
43 | CN1CCN(NC(=O)Nc2ccc(Br)cc2Cl)CC1 | inconclusive: 18.3 µM [activator, partial curve, poor fit] | –
44 | O=C(O)c1ccc(/C=N/Nc2cccc(C(F)(F)F)c2)cc1 | inconclusive: 23.1 µM [activator, partial curve, poor fit] | –
45 | Cc1ccc(S(=O)(=O)N(CC(=O)Nc2cccc(C)c2C)C(=O)N2CCN(C)CC2)cc1 | – | inactive: -9.77%
46 | C/C(=N\NC(=O)c1ccc2ccccc2c1)c1cccnc1 | inconclusive: 23.1 µM [activator, single point] | –
47 | COCCNC(=O)/C(C#N)=C/c1ccc(SC)cc1 | inconclusive: 18.3 µM [activator, single point] | –
48 | Nc1cc([N+](=O)[O-])cc2oc(-c3ccccc3)cc12 | inconclusive: 23.1 µM [activator, single point] | –
49 | N/C(=N\OC(=O)c1cccc(F)c1)c1ccccc1 | inconclusive: 14.6 µM [activator, single point] | –
50 | Cc1cc(Cl)n2c(nc3cc(F)c(F)cc32)c1C#N | inconclusive: 5.17 µM [activator, partial curve, poor fit] | –

Row | Compound | Potency | activity change, positive = activation
51 | Cc1ccc(Nc2cc(C)nn2-c2nc(C)cc(C)n2)cc1 | – | inactive: -1.6%
52 | C=CCOc1c(OC)cc(/C=N/Nc2cccc(C(=O)O)c2)c(Br)c1Br | inconclusive: 23.1 µM [activator, partial curve] | –
53 | COc1ccc(-c2cc3nc(C)cc(N)n3n2)cc1 | inconclusive: 0.461 µM [activator, full curve] | –
54 | COc1ccc(-c2cc3ccc(F)cc3cn2)cc1 | inconclusive: 2.31 µM [activator, partial curve, poor fit] | –
55 | Cn1cccc1C(=O)OCC(=O)N1CCc2ccccc21 | inconclusive: 10.3 µM [activator, single point] | –
56 | CC(=O)Nc1sc(N/N=C\c2ccccc2F)nc1-c1cccs1 | inconclusive: 3.66 µM [activator, full curve] | –
57 | C=CCC1(CC=C)CCCN1C(=O)CC1C(=O)NCCN1Cc1cccc(OC)c1OC (stereo not given) | – | inactive: -4.01%
58 | O=C(N/N=C1\CCc2ccccc21)c1ccccc1O | inconclusive: 1.64 µM [activator, partial curve] | –
59 | CCc1c(C(=O)NNC(=S)NC2CCCCC2)csc1C | – | inactive: -2.7%
60 | COc1ccc(-c2nnc3sc(-c4ccccn4)nn23)cc1 | inconclusive: 23.1 µM [activator, partial curve, poor fit] | –
61 | COc1cc(C(=O)ONC(=O)c2ccc(OC(F)F)cc2)cc(OC)c1OC | – | inactive: -5.5%
62 | COc1ccccc1N1C(=O)CC(N2CCc3ccccc32)C1=O (stereo not given) | inconclusive: 20.6 µM [activator, partial curve, poor fit] | –
63 | COc1ccccc1/C=C1\SC(=S)N(CCC(=O)Nc2nnc(C)s2)C1=O | inconclusive: 29.1 µM [activator, single point] | –
64 | COc1ccc(NC(=O)c2ccc(C(=O)c3ccccc3)o2)cc1 | – | inactive: -3.06%
65 | O=C(NCc1ccccc1)c1ccc(C2SCC(=O)N2Cc2ccccc2)cc1 (stereo not given) | – | inactive: -7.34%
66 | CCc1ccc(C2=NN(C(C)=O)C(c3ccco3)C2)cc1 (stereo not given) | active: 16.4 µM | –
67 | Cc1ccccc1NC(=S)N/N=C/c1ccc(O)cc1O | inconclusive: 23.1 µM [activator, single point] | –
68 | CCOC(=O)CSc1nc2cc(C(=O)NCc3ccco3)ccc2c(=O)n1-c1ccc(F)cc1 | inconclusive: 14.6 µM [activator, partial curve, poor fit] | –
69 | COc1ccc(CCC(=O)NCCS(=O)(=O)N2CCN(c3ccccc3OC)CC2)cc1 | – | inactive: -8.91%
70 | Cc1cc(NC(=O)c2cc(CC(C)C)on2)no1 | active: 13 µM | –
71 | Cn1c(=N)n(CC(=O)c2ccccc2)c2ccccc21 | active: 0.366 µM | –
72 | NC(=O)COc1ccc(Nc2nnc(-c3ccc(O)cc3)c3ccccc23)cc1 | – | inactive: 9.49%
73 | CCCCOC(=O)Nc1nc2ccccc2s1 | inconclusive: 2.59 µM [activator, full curve] | –
74 | Cc1ccc(NC(=O)CN(C)C(=O)CNC(=O)c2sc3ccccc3c2Cl)cc1 | active: 16.4 µM | –
75 | Cc1cc(C(=O)CSc2nnc3ccccn23)c(C)n1-c1ccccc1 | inconclusive: 0.326 µM [activator, partial curve, poor fit] | –

Reference: PubChem BioAssay AID504466 (National Center for Advancing Translational Sciences (NCATS), 2011)
